From PubChem BioAssay AID651820 (National Center for Advancing Translational Sciences (NCATS), 2012)
In all, about 340,000 compounds went through this assay and about 12,000 (3.5%) were called active. Inconclusive results, whose numbers are uncertain, are shown with a selection of clear calls. The call rests on the fitted dose curve; in most records, active means well fitted inhibition curve with a large enough effect; inconclusive means small, poorly fitted or top-dose-only effect, or another doubt; inactive means no such curve, though single readings can be large or run the other way. Potencies of inconclusive entries are left out as doubtful fits.
On the % scale 0 is the no-effect control and ±100 the full control effect; potency means the concentration at half of the fitted maximal effect; tags describe the fitted curve by direction and shape.

Assay: qHTS Assay for Inhibitors of Hepatitis C Virus (HCV)
Conditions: Huh7.5.1 HCVcc-Cre (HCVcc is cell-culture hepatitis C virus) infection, luciferase reporter, 44 h; activity change, negative = inhibition: at 41.8 µM (top of the series) unless noted
In short: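 Whole-lifecycle infectious HCVcc-Cre system; cells 1,000/well, compound then virus (~0.5 moi) added 4 h after plating, 44 h culture. Luciferase read 15 sec following 15 min substrate incubation, room temp.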
With Cc1cc(Cl)ccc1OCC(=O)N/N=C/c1ccncc1 the “activity change, negative = inhibition” value was inactive: -5.13%.
With c1ccc2[nH]c3cc4ncnc4cc3nc2c1 the “activity change, negative = inhibition” value was inactive: -21.3%.
With CC(C)N(Cc1ccccc1)C(=O)CC(=O)N(Cc1ccccc1)C(C)C the “activity change, negative = inhibition” value was inactive: 17.4%.
In the case of CC(C)n1c(SCC(=O)NC2CC2)nnc1-c1ccco1, the “activity change, negative = inhibition” value is reported as inactive: -4.55%.
In the case of O=C(NC1CCCCC1)c1ccc(-c2ccccc2F)o1, the Potency is reported as active: 0.708 µM.
With CN1CCCN(c2ncnc3scc(-c4ccc(F)cc4)c23)CC1 the Potency was inconclusive [inhibitor, single point].
For CCOC(=S)SCc1cn2ccccc2n1, the “activity change, negative = inhibition” value was inactive: -1.73%.
With Cc1nc2ccccc2c2nc(N)nn12 the Potency was inconclusive [inhibitor, single point].
For Cc1ccc(NC(=O)CN2CCc3ccccc3C2)cc1C, the Potency was inconclusive [inhibitor, single point].
With COc1cc(-c2nnc3n(CCc4ccccc4)c(=O)c4ccccc4n23)cc(OC)c1OC the Potency was inconclusive [inhibitor, single point].
With CCN(CC)c1ccc(NC(=S)Nc2ccc(F)cc2)cc1 the Potency was active: 11.2 µM.
With COC(=O)c1cc(NC(=O)CSc2nc(C)cc(=O)[nH]2)cc(C(=O)OC)c1 the “activity change, negative = inhibition” value was inactive: -19.3%.
In the case of CCOC(=O)[C@@H]1[C@H]2COc3ccc(Br)cc3[C@@H]2N2C(=O)N(c3ccc(C(F)(F)F)cc3)C(=O)[C@]12C, the “activity change, negative = inhibition” value is reported as inactive: 2.96%.
In the case of Clc1ccc(Nc2ncnc3ccc(Br)cc23)cc1, the Potency is reported as inconclusive [inhibitor, single point].
In the case of CCCC(c1nnnn1CS(=O)(=O)c1ccc(C)cc1)N1CCN(C2CCCC2)CC1 (centres undefined), the Potency is reported as inconclusive [inhibitor, single point].
In the case of O=C(CSc1n[nH]c(-c2ccccc2)n1)NC(=O)NCc1ccco1, the Potency is reported as inconclusive [inhibitor, partial curve].
In the case of CCN(C(=O)CSc1nc2ccccc2c(=O)n1-c1ccc(C)cc1)C1CCS(=O)(=O)C1 (centres undefined), the Potency is reported as inconclusive [inhibitor, single point].
With O=C(Nc1ccccc1N1CCOCC1)c1ccc2nc[nH]c2c1 the Potency was inconclusive [inhibitor, single point].
In the case of CCOC(=O)c1c(NC(=O)OC)sc2c1CCC2, the Potency is reported as inconclusive [inhibitor, partial curve].
In the case of COC(=O)C1=NNC(C(=O)c2ccco2)C1c1ccccc1 (centres undefined), the “activity change, negative = inhibition” value is reported as inactive: -8.13%.
For CN(c1ccccc1C(=O)O)S(C)(=O)=O, the “activity change, negative = inhibition” value was inactive: 6.99%.
With O=C(NCC1CCCO1)c1nn2c(C(F)(F)F)cc(-c3cc(Br)cs3)nc2c1Br (centres undefined) the Potency was inconclusive [inhibitor, full curve].
In the case of COc1ccc(/C=C2\SC(=S)N(CCCC(=O)Nc3ccc(O)cc3)C2=O)cc1, the Potency is reported as inconclusive [inhibitor, single point].
In the case of CC(=O)c1c(C)nc2ccc(Br)cc2c1-c1ccccc1, the Potency is reported as inconclusive [inhibitor, partial curve].
For COc1c2c(cc(O)c1C(C)=O)OC(C)(C)C=C2, the Potency was inconclusive [inhibitor, single point].
For CCNc1nn2ccccc2c1/C=C(\C#N)C(=O)OCC, the Potency was active: 10 µM.
For COc1ccc(-c2cnnc(N/N=C/c3ccc(O)c(OC)c3)n2)cc1, the Potency was inconclusive [inhibitor, single point].
For COc1ccc2cc(C3OCCO3)c(Cl)nc2c1, the “activity change, negative = inhibition” value was inactive: 32.1%.
In the case of COC(=O)CSc1c(-c2ccccc2)c2cc(Cl)ccc2[nH]c1=O, the “activity change, negative = inhibition” value is reported as inactive: -0.784%.
In the case of COC(=O)Nc1ccc(S(=O)(=O)N2CCN(c3ccc(F)cc3)CC2)cc1, the Potency is reported as inconclusive [inhibitor, full curve].
In the case of COCCn1c(=S)[nH]c2cc(C(=O)N3CCN(c4ccc(F)cc4)CC3)ccc2c1=O, the Potency is reported as inconclusive [inhibitor, partial curve].
For CCN(Cc1ccc(O)cc1)CC1CCCN(CCc2cccc(F)c2)C1 (centres undefined), the Potency was active: 8.91 µM.
With CCOc1cc(C2NC(=O)NC(C)=C2C(=O)OC(C)CC)cc(Br)c1O (centres undefined) the Potency was inconclusive [inhibitor, single point].
In the case of CCCCN=C1NN=C(c2ccc(C)c(C)c2)CS1, the Potency is reported as inconclusive [inhibitor, single point].
For COc1cccc(Nc2nc(-c3ccc(O)cc3)cs2)c1, the Potency was inconclusive [inhibitor, partial curve].
With CCCCCCCC(=O)C(C)C(=O)N(C)[C@H](Cc1ccc(OC)cc1)C(=O)N(C)[C@H](C(N)=O)C(C)C (some centres undefined) the Potency was active: 0.562 µM.
With CC(C)CN(C(=O)C(c1ccccc1)c1ccccc1)c1c(N)n(CC(C)C)c(=O)[nH]c1=O the “activity change, negative = inhibition” value was inactive: 3.74%.
For Cc1ccc(C(=O)N2CCN(c3ccccc3O)CC2)cc1S(=O)(=O)N1CCCCC1, the Potency was inconclusive [inhibitor, single point].
In the case of COC(=O)c1ccc(S(=O)(=O)NCCSc2nnc3c4ccccc4n(C)c3n2)cc1, the Potency is reported as active: 10 µM.
For COc1cc2c(cc1NC(=O)c1cc(-c3ccncc3)nc3ccc(C)cc13)oc1ccccc12, the Potency was inconclusive [inhibitor, full curve].
With Cn1c(CC(=O)Nc2ccccc2)nnc1SCC(=O)Nc1ccc(N2CCOCC2)cc1 the “activity change, negative = inhibition” value was inactive: 17.3%.
For CCOc1ccccc1NC(=O)c1ccccc1-c1nc(-c2ccccc2)no1, the Potency was inconclusive [inhibitor, single point].
With COc1cc2c(cc1OC)CN(c1ccc([N+](=O)[O-])cc1Cl)CC2 the Potency was inconclusive [inhibitor, partial curve].
For O=C(N/C(=C/c1ccc(Br)cc1)C(=O)N1CCCC1)c1ccccc1F, the Potency was inconclusive [inhibitor, partial curve].
In the case of CC1CCCCN1C(=O)c1cc(-c2ccc3c(c2)OCO3)on1 (centres undefined), the “activity change, negative = inhibition” value is reported as inactive: 6.86%.
With CCSC1=NCCN1C(=O)c1ccc(S(=O)(=O)N(C)C)cc1 the “activity change, negative = inhibition” value was inactive: 3.81%.
For Cc1cc2nc(C)n(CCCNC(=O)Nc3ccccc3)c2cc1C, the Potency was inconclusive [inhibitor, single point].
For O=C(NCCCN1CCN(c2ccccc2)CC1)C1CCCN(c2ncnc3c2nc2n3CCCCC2)C1 (centres undefined), the Potency was inconclusive [inhibitor, single point].
In the case of Cc1nn(-c2cc(N3CCCCC3)ccc2[N+](=O)[O-])c(=O)c2ccccc12, the Potency is reported as inconclusive [inhibitor, full curve, poor fit].
In the case of COc1ccc(N(C(=O)/C=C/c2ccccc2)C2=CC3CCC(C2)N3C)cc1 (centres undefined), the Potency is reported as inconclusive [inhibitor, single point].
For O=C(Nc1c[nH]c(=O)[nH]c1=O)c1cccc([N+](=O)[O-])c1, the “activity change, negative = inhibition” value was inactive: 17%.
In the case of CCC(Sc1nc(C)cc(C)n1)C(=O)Nc1nccs1 (centres undefined), the “activity change, negative = inhibition” value is reported as inactive: -2.63%.
In the case of CC(C)n1ncc2c(C(=O)N3CCN(Cc4ccc(Br)s4)CC3)cc(C3CC3)nc21, the Potency is reported as active: 10 µM.
With CC1CCC(C(C)C)C(OC(=O)COC(=O)c2ccc(=O)[nH]c2)C1 (centres undefined) the “activity change, negative = inhibition” value was inactive: 8.3%.
In the case of COc1ccc(CN(C(=O)c2snc(C(N)=O)c2N)C(C)C(=O)NCc2ccc(F)cc2)cc1 (centres undefined), the Potency is reported as inconclusive [inhibitor, full curve].
With CCOC(=O)c1ccc(NC(=O)c2cc(F)c(F)cc2Cl)cc1 the Potency was inconclusive [inhibitor, partial curve].
With Cc1ccc(N(CC(=O)NCc2ccco2)C(=O)CCC(=O)Nc2ccccn2)c(C)c1 the Potency was inconclusive [inhibitor, single point].
With CCC(Sc1ncccc1C(=O)OCCN1CCCC1=O)C(=O)NCc1ccco1 (centres undefined) the Potency was inconclusive [inhibitor, full curve].
In the case of CC1CN(CCCCOc2cccc(Oc3ccccc3)c2)CC(C)O1 (centres undefined), the “activity change, negative = inhibition” value is reported as inactive: 20.1%.
With BrC(=C\c1ccccc1)/C=N/Nc1nc(N2CCOCC2)nc(N2CCOCC2)n1 the Potency was inconclusive [inhibitor, single point].
For COC(=O)c1ccc(NC(=O)CNC(=O)C2CCCCC2)cc1, the “activity change, negative = inhibition” value was inactive: 12.8%.
In the case of Cc1ccc(-c2nnc(NC3CCCCC3)c3ccccc23)cc1S(=O)(=O)N1CCN(C)CC1, the “activity change, negative = inhibition” value is reported as inactive: -29.4%.
With Cc1cccc(CSc2nc3c(c(=O)n2C)SCC3)c1 the Potency was inconclusive [inhibitor, single point].
In the case of O=C(NCC(c1ccco1)N1CCCCC1)c1cc2c(s1)CCCC2 (centres undefined), the Potency is reported as inconclusive [inhibitor, single point].
For CCCN(CCC)C(=O)CSc1nc2ccccc2c(=O)n1C1CCCC1, the Potency was active: 11.2 µM.
For C/C(=N\NC(=O)c1cccc(N/N=C(\C)c2ccccc2)c1)c1ccccc1, the Potency was inconclusive [inhibitor, full curve, poor fit].
For CC(C)(C)C(=O)CN1C2=NCCCN2c2ccccc21, the “activity change, negative = inhibition” value was inactive: 0.429%.
With O=C(c1ccc(CSc2ccc(Cl)cc2)cc1)N1CCCC1 the Potency was inconclusive [inhibitor, partial curve].
For CC(NC(=O)c1ccco1)c1nc(-c2ccccc2Cl)no1 (centres undefined), the “activity change, negative = inhibition” value was inactive: 29%.
For Cc1ccc(C(=O)N2CC=C(c3ccccc3)CC2)o1, the Potency was active: 11.2 µM.
For CSc1cccc(CN2CCCC(C(=O)Nc3cccc(-n4cccn4)c3)C2)c1 (centres undefined), the Potency was inconclusive [inhibitor, partial curve].
With O=C(Nc1cccc2ncccc12)c1ccc(OCc2ccccc2)cc1 the Potency was active: 15.8 µM.
For O=C(Nc1cccc(-c2nc3ccccc3s2)c1)c1cc(=O)c2ccccc2o1, the Potency was inconclusive [inhibitor, partial curve].
In the case of CCOCCCN(C)C1CCN(C(=O)c2oc3ccccc3c2NC(=O)c2ccc(F)cc2)CC1, the Potency is reported as inconclusive [inhibitor, single point].
